# From PubChem BioAssay AID485281 (National Center for Advancing Translational Sciences (NCATS), 2010)
# Values joined by “and” are separate entries in the source; they are usually repeats but may differ in a detail not shown here. Equal values may be shown once. About 260 (0.074%) of roughly 350,000 compounds were called active. This list was built around the results that the source calls inconclusive (neither active nor inactive); the mix of calls is not that of the screen. The call rests on the fitted dose curve; in most records, active means well fitted inhibition curve with a large enough effect; inconclusive means small, poorly fitted or top-dose-only effect; inactive means no such curve, though single readings can be large or run the other way. A potency beside an inconclusive call is a rough fit, not a confirmed value.
# Biological target: Ferritin light chain (Equus caballus) (UniProt P02791)
# UniProt P02791, sequence (P02791 whole entry, looked up): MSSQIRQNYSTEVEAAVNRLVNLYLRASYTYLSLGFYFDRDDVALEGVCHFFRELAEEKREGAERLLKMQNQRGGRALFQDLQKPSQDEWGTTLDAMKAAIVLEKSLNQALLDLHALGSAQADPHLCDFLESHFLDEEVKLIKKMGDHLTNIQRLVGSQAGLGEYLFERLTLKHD
# Test: qHTS Assay for Identification of Novel General Anesthetics; further: nearly all actives have a fitted effect of over 20% in size
# Settings: apoferritin/1-aminoanthracene competitive binding, fluorescence; series mostly up to 77.5 µM
# Text: Source: NIH Chemical Genomics Center [NCGC]
# Assay Submitter: Roderic Eckenhoff, University of Pennsylvania
# Screening Center PI: Christopher P. Austin, NIH
# Probe Development: NIH Chemical Genomics Center [NCGC]
# Anesthetic development has remained a largely empirical process. There are growing concerns about the cognitive effects of known general anesthetics and acceleration of the onset of neurodegenerative disease. The compounds' toxicity and multiple specific binding targets in the mammalian brain [4] has made them less attractive as drug leads. In this assay, a GABAergic mimetic model system, apoferritin and a profluorescent 1-aminoanthracene ligand (1-AMA), was used to construct a competitive binding assay for identification of novel general anesthetics. The assay was validated for 1-AMA using other known anesthetics, such as isoflurane (CID:3763) and propofol (CID: 4943), [6].
# [1] S.L. Bianchi, T. Tran, C. Liu, S. Lin, Y. Li, J.M. Keller, R.G. Eckenhoff, and M.F. Eckenhoff, Brain and behavior changes in 12-month-old Tg2576 and nontransgenic mice exposed to anesthetics. Neurobiol Aging 29 (2008) 1002-10.
# [2] Z. Xie, Y. Dong, U. Maeda, R.D. Moir, W. Xia, D.J. Culley, G. Crosby, and R.E. Tanzi, The inhalation anesthetic isoflurane induces a vicious cycle of apoptosis and amyloid beta-protein accumulation. J Neurosci 27 (2007) 1247-54.
# [3] P. Honegger, and J.M. Matthieu, Selective toxicity of the general anesthetic propofol for GABAergic neurons in rat brain cell cultures.
# [4] M.F. Eckenhoff, K. Chan, and R.G. Eckenhoff, Multiple specific binding targets for inhaled anesthetics in the mammalian brain. J Pharmacol Exp Ther 300 (2002) 172-9.
# [5] C.A. Butts, J. Xi, G. Brannigan, A.A. Saad, S.P. Venkatachalan, R.A. Pearce, M.L. Klein, R.G. Eckenhoff, and I.J. Dmochowski, Identification of a fluorescent general anesthetic, 1-aminoanthracene. Proc Natl Acad Sci U S A 106 (2009) 6501-6.
# [6] W.A. Lea, J. Xi, A. Jadhav, L. Lu, C.P. Austin, A. Simeonov, and R.G. Eckenhoff, A high-throughput approach for identification of novel general anesthetics. PLoS One 4 (2009) e7150.
# Three uL of reagents (free 1-AMA (50% saturated solution of 1-aminoanthracene
# in PBS) in columns 3, 4 as negative control and 1-AMA/apoferritin mixture (10 uM horse-spleen apoferritin in 50% saturated 1-aminoanthracene in PBS) in columns 1, 2, 5-48) was dispensed into 1536-well Greiner black assay plates. Compounds (23 nL) were transferred via Kalypsys pintool equipped with 1,536-pin array (10 nL slotted pins, V&P Scientific, San Diego, CA). Titration of the positive control, propofol, were delivered via pin transfer from separate control plates to the 2nd column of each assay plate. The starting concentration of the control, dissolved in DMSO, was at 160 mM, followed by two-fold dilution points in duplicate, for a total of 16 concentrations. The plates were incubated for 10 min at room temperature, and then read on an EnVision HTS multilabel reader (Perkin-Elmer, Waltham, MA) (end point read, 3 min/plate) using Fura2 BFP excitation filter (380 nm, bandwidth 10 nm) and fluorescein emission filter (535 nm, bandwidth 25 nm) set. A LANCE/DELFIA dichroic mirror with a cutoff wavelength at 400 nm was used to maximize signal accuracy and strength. Vehicle-only plates, with DMSO being pin-transferred to the entire column 5-48 compound area, were inserted uniformly at the beginning and the end of each library in order to monitor for and record any shifts in the background. Activity was computed as the normalized fluorescence response relative to free 1-AMA and 1-AMA/apoferritin complex values. Concentration-effect relationships were derived by using curve fitting algorithms developed in-house (http://ncgc.nih.gov/pub/openhts/). A four parameter Hill equation was fitted to the concentration-response data by minimizing the residual error between the modeled and observed responses.
# Potency means the concentration at half of the fitted maximal effect; tags describe the fitted curve by direction and shape.
row,Structure (SMILES),Potency
1,COc1ccc(-c2nc3ccncc3[nH]2)cc1OC,inactive
2,COc1ccc2nc(SCC(=O)NC3CCCc4ccccc43)[nH]c2c1 (stereo not given),"inconclusive: 50.1 µM [inhibitor, single point]"
3,CN(C)c1ccc(/C=C2\C(=O)Nc3ccccc32)c2ccccc12,"inconclusive: 14.1 µM [inhibitor, partial curve]"
4,CC(=O)Nc1ccc(N2CCC(C)CC2)c([N+](=O)[O-])c1,"inconclusive: 35.5 µM [inhibitor, partial curve]"
5,CCc1ccc(S(=O)(=O)NCc2cccs2)cc1,"inconclusive: 28.2 µM [inhibitor, partial curve]"
6,COc1ccc(-c2oc3ccccc3c(=O)c2OC(=O)c2ccc(C)cc2)cc1,inactive
7,COc1ccccc1NC(=O)c1sc(-c2ccc(Cl)cc2)cc1N,inactive
8,CCc1ccc2c(c1)NC(c1ccc(F)cc1)=NC(c1ccncc1)=N2,"inconclusive: 25.1 µM [inhibitor, partial curve]"
9,O=C(NCCCn1ccnc1)c1ccc(S(=O)(=O)N2CCCCCC2)cc1,"inconclusive: 39.8 µM [inhibitor, partial curve]"
10,Cc1cc2cc(CNC(=S)NC3CCCCC3)ccc2n1C,"inconclusive: 12.6 µM [inhibitor, partial curve]"
11,C=CC[n+]1c(-c2ccc(Cl)cc2Cl)csc1Nc1ccc(NC(C)=O)cc1,inactive
12,COc1cc(C2C(C#N)=C(N)Oc3c2ccc2ccccc32)ccc1OCC(=O)Nc1ccc(C)cc1 (stereo not given),"inconclusive: 35.5 µM [inhibitor, partial curve]"
13,O=C(NCCc1ccccc1)c1ccc(-c2ccccc2C(F)(F)F)o1,inactive
14,O=C(c1ccc2c(c1)OCCCO2)N1CCCCC1,inactive
15,O=C(Nc1cccc(C(=O)OCc2cc(=O)n3c4c(sc3n2)CCCC4)c1)c1ccc(Cl)cc1,inactive
16,O=C1c2cccc3cccc(c23)C(=O)N1c1ccncc1,inactive
17,COc1nnc(-c2ccc(N3CCCCC3)c(NC(=O)c3ccccc3Cl)c2)c2ccccc12,"inconclusive: 3.55 µM [inhibitor, full curve]"
18,O=C(c1cc(COc2ccc(F)cc2Cl)on1)N1CCC(OCc2cccnc2)CC1,inactive
19,Cc1nnc(Oc2ccccc2F)c2ccccc12,"inconclusive: 22.4 µM [inhibitor, partial curve]"
20,COc1ccc(Cl)cc1Nc1nc(-c2sc(NC(=O)c3ccco3)nc2C)cs1,inactive
21,O=C(c1cccs1)c1coc2ccc(O)c(CN3CCOCC3)c12,"inconclusive: 35.5 µM [inhibitor, single point]"
22,CCOc1cc(Br)c(C=O)cc1OCC,"inconclusive: 31.6 µM [inhibitor, partial curve]"
23,COc1ccc(C2C(C(=O)c3cccs3)=C(O)C(=O)N2c2nnc(C)s2)cc1OC (stereo not given),"inconclusive: 39.8 µM [inhibitor, single point]"
24,O=C(COc1ccc(C(=O)c2ccc(F)cc2)cc1)NCc1ccc(F)cc1,inactive

row,Structure (SMILES),Potency
1,COCCc1nn2c(=O)cc(COC(=O)c3ccccc3C)nc2s1,"inconclusive: 35.5 µM [inhibitor, single point]"
2,COc1ccc(C(=O)C(CN2CCOCC2)c2ccccc2)cc1F (stereo not given),"inconclusive: 35.5 µM [inhibitor, partial curve]"
3,Cc1cccc(OCC(=O)Nc2sc3c(c2C#N)CCC3)c1,inactive
4,COc1ccc(CC(C)N2CCN(c3ccccc3OC)CC2)cc1OC (stereo not given),inactive
5,COC(=O)c1cc(NC(=O)N2c3ccccc3Sc3ccccc32)cc(C(=O)OC)c1,"inconclusive: 10 µM [inhibitor, partial curve]"
6,CC12COC3(C(=O)Nc4ccc(F)cc4)CC1CCC32C (stereo not given),"inconclusive: 20 µM [inhibitor, partial curve]"
7,Cc1nnc(SCC(=O)N/N=C/c2cn(-c3ccccc3)nc2-c2ccccc2)n1-c1ccccc1,"inconclusive: 3.16 µM [inhibitor, full curve]"
8,CCc1ccccc1S(=O)(=O)c1c(C)cc(C)nc1Cl,"inconclusive: 31.6 µM [inhibitor, partial curve]"
9,CCOC(=O)C(C)Sc1ncc(-c2ccc(Cl)cc2)cn1 (stereo not given),"inconclusive: 22.4 µM [inhibitor, partial curve]"
10,O=C(O)/C=C/c1cccc2c1OCCO2,inactive
11,O=C(N/N=C/c1ccc(OCc2ccccc2)cc1)c1ccncc1,"inconclusive: 25.1 µM [inhibitor, partial curve]"
12,COc1ccc(-c2ccc(-c3noc(-c4ccccc4C)n3)c(OC)n2)cc1,inactive
13,Cc1ccc(NC(=O)Cn2cccc2)cc1C,"inconclusive: 50.1 µM [inhibitor, single point]"
14,CC(=O)c1ccc(NC(=O)C2=CC(c3ccc(C)cc3)=NS(=O)(=O)N2C)cc1,"inconclusive: 25.1 µM [inhibitor, partial curve, poor fit]"
15,COc1ccc(S(=O)(=O)NCc2ccccc2)cc1,"inconclusive: 39.8 µM [inhibitor, single point]"
16,c1ccc(-c2n[nH]c(-c3ccccn3)n2)nc1,inactive
17,COc1ccccc1C(=O)Oc1ccc(C(C)(C)C)cc1,"inconclusive: 39.8 µM [inhibitor, partial curve]"
18,CC(C)CC(C(=O)NC(=O)NCc1ccccc1)N1C(=O)c2ccccc2C1=O (stereo not given),"inconclusive: 7.08 µM [inhibitor, full curve]"
19,CCCCCCNC(=O)Cc1c(O)c2ccccc2[nH]c1=O,inactive
20,Cc1nc2scc(C)n2c(=O)c1S(=O)(=O)Nc1ccc(OC(F)(F)F)cc1,"inconclusive: 22.4 µM [inhibitor, partial curve]"
21,O=C(c1ccco1)N(Cc1ccc([N+](=O)[O-])cc1)c1ccc(Cl)cc1,"inconclusive: 17.8 µM [inhibitor, partial curve]"
22,CCOC(=O)c1noc2ncnc(N3CCN(c4cccc(C(F)(F)F)c4)CC3)c12,"inconclusive: 22.4 µM [inhibitor, partial curve]"
23,O=C(O)CN1C(=O)/C(=C/c2ccc(SCc3ccccc3)o2)SC1=S,"inconclusive: 31.6 µM [inhibitor, partial curve]"
24,CCc1ccccc1N1C(=O)C2CC=CCC2C1=O (stereo not given),"inconclusive: 39.8 µM [inhibitor, partial curve]"

row,Structure (SMILES),Potency
1,CCN1C(=O)C(O)(CC(=O)/C=C/C=C/c2ccccc2)c2ccccc21 (stereo not given),"inconclusive: 39.8 µM [inhibitor, partial curve]"
2,COc1ccc(S(=O)(=O)N2CCN(C3CCCCCCC3)CC2)cc1,"inconclusive: 31.6 µM [inhibitor, partial curve] and inconclusive: 22.4 µM [inhibitor, partial curve]"
3,N#C/C(=C/c1cn(-c2ccccc2)nc1-c1cccc(OCc2ccccc2)c1)C(=O)NCCCn1ccnc1,"inconclusive: 50.1 µM [inhibitor, single point]"
4,Cc1ccc(OCc2nc(-c3ccccn3)no2)c(Br)c1,"inconclusive: 35.5 µM [inhibitor, partial curve]"
5,O=C(CSc1c2c(nc3cc(Cl)ccc13)CCCC2)N1CCN(c2ccccc2)CC1,"inconclusive: 10 µM [inhibitor, partial curve]"
6,O=C(Nc1ccc2c(c1)CCC2)c1cc(S(=O)(=O)Nc2ccc(F)cc2)c(Cl)cc1Cl,inactive
7,O=[N+]([O-])c1ccc2nc(SCc3ccccc3Cl)sc2c1,"inconclusive: 28.2 µM [inhibitor, partial curve]"
8,CCCn1nnc(NC(=O)COc2ccc(C3CCCCC3)cc2)n1,"inconclusive: 12.6 µM [inhibitor, partial curve]"
9,O=C(Cc1ccccc1)c1nc2ccccc2s1,"inconclusive: 28.2 µM [inhibitor, partial curve]"
10,CC(C)c1ccc(NC(=O)CSC2=Nc3ccccc3C3=NC(CCC(=O)NCc4ccco4)C(=O)N23)cc1 (stereo not given),"inconclusive: 50.1 µM [inhibitor, partial curve]"
11,CCOC(=O)CC(=O)CSc1nc2c(sc(=S)n2-c2ccc(OCC)cc2)c(=O)[nH]1,inactive
12,COc1cc(/C=C/C(=O)OCC(=O)NC(=O)NC2CCCCC2)ccc1OC(F)F,"inconclusive: 11.2 µM [inhibitor, partial curve]"
13,c1ccc(-c2noc(CSc3nnnn3C3CCCCC3)n2)cc1,inactive
14,COc1ccc(-c2cc(C(=O)N3CCCC3)c3ccccc3n2)cc1OC,inactive
15,CC(C)OC(=O)c1cc2c(ccn2C)n1CC(=O)N(Cc1ccccc1)c1ccc(F)cc1,inactive
16,CCOc1cc(/C=C2\SC(=N)N(c3nonc3N)C2=O)ccc1OCCN1CCOCC1,"inconclusive: 35.5 µM [inhibitor, single point]"
17,CC(C)Sc1oc(-c2ccco2)nc1S(=O)(=O)c1ccc(F)cc1,"inconclusive: 50.1 µM [inhibitor, single point]"
18,O=C(Nc1cccnc1)c1coc(=O)c2ccccc12,inactive
19,CCOC(=O)c1sc(NC(=O)Cn2nnc3sc4c(c3c2=O)CCC(C(C)(C)C)C4)nc1C (stereo not given),"inconclusive: 12.6 µM [inhibitor, partial curve]"
20,O=C(C1CCN(S(=O)(=O)c2cccc3nsnc23)CC1)N1CCCc2ccccc21,"inconclusive: 22.4 µM [inhibitor, partial curve]"
21,O=Cc1ccc(N2CCCCC2)cc1,"inconclusive: 28.2 µM [inhibitor, single point]"
22,COc1ccc2c(c1)C=CC1(O2)N(CCO)c2ccccc2C1(C)C (stereo not given),"inconclusive: 35.5 µM [inhibitor, single point]"
